{"source": "PubChem BioAssay AID1476", "about": "(National Center for Advancing Translational Sciences (NCATS), 2009)", "note": "In all, about 200,000 compounds went through this assay and about 4,500 (2.2%) were called active. This list was built around the results that the source calls inconclusive (neither active nor inactive); the mix of calls is not that of the screen. Calls come from the whole dose curve; as a rule, active = well fitted inhibition curve with a large enough effect; inconclusive = small, poorly fitted or top-dose-only effect, or effect the other way; inactive = flat fitted curve, though single readings scatter. Potencies of inconclusive entries are doubtful fits and often do not repeat. Potency is the fitted concentration of half-maximal effect; tags give direction and shape of the fitted curve."}
{"biological_target": "Cruzipain (Trypanosoma cruzi) (UniProt P25779)", "sequence (P25779 whole entry, looked up)": "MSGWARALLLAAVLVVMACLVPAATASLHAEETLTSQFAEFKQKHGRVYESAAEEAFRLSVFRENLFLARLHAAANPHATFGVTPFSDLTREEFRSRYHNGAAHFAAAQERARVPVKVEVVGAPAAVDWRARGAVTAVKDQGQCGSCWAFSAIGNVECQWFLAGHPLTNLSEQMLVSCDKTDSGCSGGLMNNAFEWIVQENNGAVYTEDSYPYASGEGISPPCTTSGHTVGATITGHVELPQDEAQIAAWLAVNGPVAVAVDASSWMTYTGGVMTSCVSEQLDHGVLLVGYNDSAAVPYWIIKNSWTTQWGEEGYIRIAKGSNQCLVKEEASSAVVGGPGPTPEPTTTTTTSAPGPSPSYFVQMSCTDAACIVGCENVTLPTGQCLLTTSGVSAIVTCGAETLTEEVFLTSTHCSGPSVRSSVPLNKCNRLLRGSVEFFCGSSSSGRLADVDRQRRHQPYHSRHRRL", "assay": "qHTS Assay for Promiscuous and Specific Inhibitors of Cruzain (without detergent); note: nearly all actives have a fitted effect of over 40% in size;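 for max response, negative = inhibition: plate controls were enzyme without inhibitor for no effect and buffer without enzyme for full effect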", "details": "purified cruzain, Z-FR-AMC fluorescence, no detergent", "procedure,_shortened": "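Detergent-free condition (0.00005% Triton X-100) in acetate buffer pH 5.5 with DTT. 1.5 nM enzyme and compound were pre-mixed 15 min, then 2 uM Z-FR-AMC substrate added; reaction progress from fluorescence change between first and third reads (60 s).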"}
{"smiles": "O=C(Cn1c(=O)nc(-c2ccccc2)c2ccccc21)Nc1ccc(Cl)c(C(F)(F)F)c1", "max response, negative = inhibition": "inactive: 2.23%"}
{"smiles": "O=C(CCCOc1ccc(Cl)cc1)N1CCOCC1", "max response, negative = inhibition": "inactive: 5.03%"}
{"smiles": "COCCNC(=O)C(c1ccc(C)o1)N(C(=O)c1snc(C(N)=O)c1N)c1cc(C)cc(C)c1", "note": "(configuration not stated)", "Potency": "inconclusive: 31.6 µM [activator, single point]"}
{"smiles": "CCC(CC)C(=O)OCC(=O)Nc1ccc(S(=O)(=O)N2CCOCC2)cc1OC", "Potency": "inconclusive: 20 µM [activator, single point]"}
{"smiles": "CC(C)(C)c1ccc(C(=O)Nc2nonc2-c2nc3ccccc3[nH]2)cc1", "Potency": "active: 3.16 µM"}
{"smiles": "COc1cc(NC(=O)Cn2c(=O)oc3cc(S(=O)(=O)N4CCCCCC4)ccc32)cc(OC)c1", "max response, negative = inhibition": "inactive: -7.87%"}
{"smiles": "Cc1oc2ccc(O)c(CN(C)Cc3ccccc3)c2c1C(=O)Nc1cccc(C(F)(F)F)c1", "Potency": "inconclusive: 39.8 µM [inhibitor, single point]"}
{"smiles": "COc1ccc(C(=O)c2cn(CC(=O)Nc3ccc4c(c3)OCCO4)c3ccc(OC)cc3c2=O)cc1", "max response, negative = inhibition": "inactive: 11.6%"}
{"smiles": "O=C(Nc1ccccc1)C1CCCCC1", "max response, negative = inhibition": "inactive: 6.87%"}
{"smiles": "CCOC(=O)c1cnc(SC)nc1Oc1cccc(NS(=O)(=O)c2ccc(Cl)cc2)c1", "Potency": "inconclusive: 15.8 µM [inhibitor, partial curve]"}
{"smiles": "C[C@H]1C(c2cccc(Cl)c2)=NN(c2ccccc2)[C@@H]1CO", "Potency": "inconclusive: 39.8 µM [inhibitor, single point]"}
{"smiles": "C=C(C)c1cccc(C(C)(C)NC(=O)N(Cc2ccccc2)Cc2ccco2)c1", "Potency": "inconclusive: 31.6 µM [inhibitor, single point]"}
{"smiles": "CCOc1ccc(-n2c(CCC(=O)O)ccc2-c2ccc(Br)cc2)cc1", "max response, negative = inhibition": "inactive: -15.9%"}
{"smiles": "O=C1C(NS(=O)(=O)c2cccs2)=C(N2CCN(c3ccccc3)CC2)C(=O)c2ccccc21", "Potency": "inconclusive: 31.6 µM [inhibitor, single point]"}
{"smiles": "COc1ccccc1Oc1ccc(S(=O)(=O)N2CCOCC2)cc1S(=O)(=O)N1CCOCC1", "Potency": "inconclusive: 31.6 µM [activator, single point]"}
{"smiles": "c1ccc2c(c1)ncn2CCCCOc1ccc2c(c1)CCC2", "Potency": "inconclusive: 39.8 µM [activator, single point]"}
{"smiles": "Cc1ccccc1-n1nc(C)c2cc(C(=O)N3CCN(S(=O)(=O)c4ccc(Cl)cc4)CC3)sc21", "Potency": "inconclusive: 31.6 µM [inhibitor, single point]"}
{"smiles": "COc1ccc(OC)c(NC(=O)c2cc(-c3cc(Cl)ccc3O)n[nH]2)c1", "Potency": "inconclusive: 39.8 µM [inhibitor, single point]"}
{"smiles": "Cc1ccc(-c2ccc(=O)n(Cc3cc(C)ccc3C)n2)cc1", "Potency": "inconclusive: 39.8 µM [activator, single point]"}
{"smiles": "CC1=Nc2cc(C(=O)NCCc3ccc(Cl)cc3)ccc2Sc2ccc(C)cc21", "Potency": "active: 10 µM"}
{"smiles": "COc1cccc(/C=N/NC(=O)c2ccc(OCc3cccc(Br)c3)cc2)c1", "Potency": "inconclusive: 39.8 µM [inhibitor, single point]"}
{"smiles": "CN(C)CCNC(=O)c1ccc(-n2c(-c3ccccc3)cc3c2CCCC3)cc1", "Potency": "inconclusive: 31.6 µM [inhibitor, single point]"}
{"smiles": "CCc1ccc(CNC(=O)c2ccc3c(c2)N=C(C)c2cc(C)ccc2S3)cc1", "Potency": "inconclusive: 10 µM [inhibitor, partial curve]"}
{"smiles": "CCOC(=O)c1c(NC(=O)CS(=O)(=O)c2ccc(C)cc2)sc2c1CCCCC2", "Potency": "active: 3.98 µM"}
{"smiles": "COC(=O)c1cc2c(=O)n3ccccc3nc2n(C)c1=N", "Potency": "inconclusive: 39.8 µM [inhibitor, single point]"}
{"smiles": "COc1ccc2c(c1)C1=NN(/C(C)=C\\C(C)=O)C(c3ccccc3)C1CC2", "note": "(configuration not stated)", "Potency": "active: 25.1 µM"}
{"smiles": "CCc1ccc(N2CC(C(=O)NCc3ccco3)CC2=O)cc1", "note": "(configuration not stated)", "Potency": "inconclusive: 31.6 µM [activator, single point]"}
{"smiles": "Cc1ccc(NCc2cccn2-c2nnc(N3CCC(C(=O)NC(C)C)CC3)s2)cc1", "Potency": "inconclusive: 25.1 µM [activator, single point]"}
{"smiles": "Cc1ccc(S(=O)(=O)N2CCCc3cc(NS(=O)(=O)c4ccc(F)c(C)c4)ccc32)cc1", "Potency": "inconclusive: 31.6 µM [inhibitor, single point]"}
{"smiles": "Cc1cc2cc(CNS(=O)(=O)c3ccccc3)ccc2n1C", "Potency": "inconclusive: 25.1 µM [inhibitor, single point]"}
{"smiles": "Cc1ccc(CNC(=O)C2CCCN(S(=O)(=O)c3ccc4c(c3)oc(=O)n4C)C2)cc1", "note": "(configuration not stated)", "Potency": "inconclusive: 3.98 µM [activator, single point]"}
{"smiles": "COc1cccc(C(=O)NCCSc2c(-c3ccc(F)cc3)[nH]c3ccccc23)c1OC", "Potency": "inconclusive: 39.8 µM [inhibitor, single point]"}
{"smiles": "Cc1ccc(S(=O)(=O)c2cn(CC(=O)Nc3ccc(C)c(Cl)c3)c3ccc(C)cc3c2=O)cc1", "Potency": "inconclusive: 0.501 µM [inhibitor, full curve, poor fit]"}
{"smiles": "CCCCc1ccc(/C=C2/C(=O)ON=C2c2ccccc2)s1", "max response, negative = inhibition": "inactive: -5.83%"}
{"smiles": "CC(Oc1ccc(F)cc1)C(=O)NCC1(N(C)C)CCCCC1", "note": "(configuration not stated)", "max response, negative = inhibition": "inactive: -4.69%"}
{"smiles": "N=c1c(C(=O)NCc2ccccc2)cc2c(=O)n3ccccc3nc2n1CCCN1CCOCC1", "Potency": "inconclusive: 25.1 µM [activator, single point]"}
{"smiles": "Cc1ccc(C(=O)NCCn2c(C)cc3ccccc32)cc1C", "max response, negative = inhibition": "inactive: 5.84%"}
{"smiles": "COc1cc2[nH]c3c(Cl)ncnc3c2cc1OC", "max response, negative = inhibition": "inactive: -9.26%"}
{"smiles": "COc1ccc(C(=O)Nn2c(SCC(=O)c3ccc(Cl)cc3)nc3ccccc3c2=O)cc1", "Potency": "inconclusive: 39.8 µM [inhibitor, single point]"}
{"smiles": "Cc1ccc(S(=O)(=O)C(CNC(=O)C(=O)NCc2ccc(Cl)cc2)c2cccs2)cc1", "note": "(configuration not stated)", "max response, negative = inhibition": "inactive: -20.1%"}
{"smiles": "COc1cc(/C=C2\\SC(c3ccc(C)cc3)=NC2=O)cc(OC)c1OC", "Potency": "inconclusive: 39.8 µM [activator, single point]"}
{"smiles": "CCOc1ccccc1/C=C/c1onc(C)c1S(=O)(=O)N1CCC(C(=O)N(CC)CC)CC1", "Potency": "inconclusive: 31.6 µM [activator, single point]"}
